{"source": "paper PMC7819943", "about": "“Rice protein-binding microarrays: a tool to detect cis-acting elements near promoter regions in rice”", "note": "The list shows a part of the results."}
{"target": "T1, OsWOX13 (Oryza sativa, UniProt Q5QMM3 1-267)", "T1 sequence": "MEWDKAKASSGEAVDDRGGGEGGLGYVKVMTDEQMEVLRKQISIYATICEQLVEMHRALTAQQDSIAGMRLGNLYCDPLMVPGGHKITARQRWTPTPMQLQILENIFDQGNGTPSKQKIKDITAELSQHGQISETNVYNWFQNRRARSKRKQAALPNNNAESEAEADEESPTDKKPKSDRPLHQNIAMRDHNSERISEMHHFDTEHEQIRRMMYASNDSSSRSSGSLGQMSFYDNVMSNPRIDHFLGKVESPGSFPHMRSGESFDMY", "assay": "protein-binding microarray (RPBM); PBS, 2% BSA, 51.3 ng/ul salmon testes DNA, 50 uM zinc acetate, 200 nM TF, 25 C, 1 h; high values mean tight binding", "details": "protein: recombinant; tags: N-terminal polyhistidine and DsRed monomer fusion (pET32a); label: CyDye5-dUTP incorporated in the synthesized complementary strand; 3' TTTTT single-stranded linker to array surface; dsDNA, one strand shown", "in_short": "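Binding signal is reported as fluorescence intensity per feature (arbitrary units) from an Axon 4000B scanner. Incubation used 200 nM of each Ni–NTA-purified, N-terminally polyhistidine- and DsRed-fused transcription factor from E. coli BL21-CodonPlus on a double-stranded custom Agilent array for 1 h at 25 °C, with 50 µM zinc acetate in the buffer, followed by washing.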"}
{"sequence": "GGCTAACTGGATGACGATGATATATTATTATTATGGAAGCCGGAGTCACCTAGTGCAG", "binding signal": "25600 fluorescence intensity (a.u.)"}
{"sequence": "GGAATCAAATTAAAATTTCAGGGGTATAGAAGGGATCGGGCGGAGTCACCTAGTGCAG", "binding signal": "3790 fluorescence intensity (a.u.)"}
{"sequence": "TAAATTATTTAATTAGTAACTGGACTAAAATATATATTTCCGGAGTCACCTAGTGCAG", "binding signal": "3380 fluorescence intensity (a.u.)"}
{"sequence": "ACTAACTTGACCAATCAAGCGTATAAATAGTAACTACTACCGGAGTCACCTAGTGCAG", "binding signal": "31000 fluorescence intensity (a.u.)"}
{"sequence": "TGAGGTAAATTTCTCAATCCTTTTGAAACGCAAAATAACACGGAGTCACCTAGTGCAG", "binding signal": "3350 fluorescence intensity (a.u.)"}
{"sequence": "GAGGTAATTAGTAAGAAACTAATAATTGTAGTAATCCAAGCGGAGTCACCTAGTGCAG", "binding signal": "25400 fluorescence intensity (a.u.)"}
{"sequence": "TTTCCATCCAATCACAACCCTCCACCATTAACTTTTCCCACGGAGTCACCTAGTGCAG", "binding signal": "6250 fluorescence intensity (a.u.)"}
{"sequence": "AGGATTGAATATTCCTGTAATTTCCCTTTACAAATCCTCTCGGAGTCACCTAGTGCAG", "binding signal": "9300 fluorescence intensity (a.u.)"}
{"sequence": "AGTTGATTATATGTGATTTAGAGCTAGTAGCTTGCTGTACCGGAGTCACCTAGTGCAG", "binding signal": "51500 fluorescence intensity (a.u.)"}
{"sequence": "AACGTTGATTTGTTGATAGAGTATGGTTATTGATGCCCCTCGGAGTCACCTAGTGCAG", "binding signal": "47500 fluorescence intensity (a.u.)"}
{"sequence": "CACTTAATCAATAATCATTAGTTCAGTACTGAAAGTCTGACGGAGTCACCTAGTGCAG", "binding signal": "15900 fluorescence intensity (a.u.)"}
{"sequence": "CTCGTTTTCAAATTAATAGATGTGGTTGACTAAGTAGAAACGGAGTCACCTAGTGCAG", "binding signal": "5680 fluorescence intensity (a.u.)"}
{"sequence": "AAAATTGAGGGATTCATACCAGCTTCGCTTGCTAATGCGTCGGAGTCACCTAGTGCAG", "binding signal": "3660 fluorescence intensity (a.u.)"}
{"sequence": "CATCTTAATTTAATTATGTATATTATACATGAAATTAGATCGGAGTCACCTAGTGCAG", "binding signal": "16900 fluorescence intensity (a.u.)"}
{"sequence": "ACCCTTTAATCTATCACTGATAAAACATGCCTTTTAGAATCGGAGTCACCTAGTGCAG", "binding signal": "5830 fluorescence intensity (a.u.)"}
{"sequence": "TACTATCGGTAATTGTTGATATCTATAAAATTAGTTGATCCGGAGTCACCTAGTGCAG", "binding signal": "5660 fluorescence intensity (a.u.)"}
{"sequence": "ATTAAAATTTTAATTAATTGATAAAAGTTAATAATGGCCGCGGAGTCACCTAGTGCAG", "binding signal": "34300 fluorescence intensity (a.u.)"}
{"sequence": "CCTACCATCTAGTATGATGATTAATTATGAACAGAGTGAGCGGAGTCACCTAGTGCAG", "binding signal": "6980 fluorescence intensity (a.u.)"}
{"sequence": "TGTAAACTAATAGCAAAATAAATTATAAATTCTACCTGTACGGAGTCACCTAGTGCAG", "binding signal": "10700 fluorescence intensity (a.u.)"}
{"sequence": "GTAAATTTGCAATTGCCCCAAAATGTTTATATTGGACGGACGGAGTCACCTAGTGCAG", "binding signal": "21800 fluorescence intensity (a.u.)"}
{"sequence": "TCTTGATTTTGTTTGTTTTAAATCAGTGTGAAAATCATTACGGAGTCACCTAGTGCAG", "binding signal": "10500 fluorescence intensity (a.u.)"}
{"sequence": "CTTAATTACAAATTTGAAATTAATTTGCTAGGTATGTTTACGGAGTCACCTAGTGCAG", "binding signal": "63900 fluorescence intensity (a.u.)"}
{"sequence": "CGGTGCAATCAGATTACAGATCGAATAAATAGTTGTCAAGCGGAGTCACCTAGTGCAG", "binding signal": "3660 fluorescence intensity (a.u.)"}
{"sequence": "CTGTTCTGTCAAAAGGCTATTGATTTATCCTCCGATCATACGGAGTCACCTAGTGCAG", "binding signal": "11500 fluorescence intensity (a.u.)"}
{"sequence": "CTATTTGACTGAAAGTTAAAACCTTAAATGTTTAAATCAGCGGAGTCACCTAGTGCAG", "binding signal": "13800 fluorescence intensity (a.u.)"}
{"sequence": "ATCTCTATTATCCCCATTATGTTCTTAATCATGCCCAGGACGGAGTCACCTAGTGCAG", "binding signal": "5050 fluorescence intensity (a.u.)"}
{"sequence": "CTAAACAGGCCTTATATTATTTTCTTAGGGCTGTTTTGGACGGAGTCACCTAGTGCAG", "binding signal": "6570 fluorescence intensity (a.u.)"}
{"sequence": "AGTTAACACATATCATCTACAGCCAACCTAATAGTATGTTCGGAGTCACCTAGTGCAG", "binding signal": "3290 fluorescence intensity (a.u.)"}
{"sequence": "CTTAATATATATTAAACAACCTAGAATTAAAATTATTTTGCGGAGTCACCTAGTGCAG", "binding signal": "7540 fluorescence intensity (a.u.)"}
{"sequence": "TTATTTGACTGATACCCATCAACTCCATACCCAAATCAAGCGGAGTCACCTAGTGCAG", "binding signal": "20600 fluorescence intensity (a.u.)"}
{"sequence": "TCTGTGTTGACTCAAAATTGATTTGATCAGATACGGGACACGGAGTCACCTAGTGCAG", "binding signal": "19400 fluorescence intensity (a.u.)"}
{"sequence": "CTTATTAATATAATAAACTAATAGATAAATATATAATTGTCGGAGTCACCTAGTGCAG", "binding signal": "6800 fluorescence intensity (a.u.)"}
{"sequence": "GTCCAATCACAGCGGCGCACAAAGGCGCGTGTGGAAAACACGGAGTCACCTAGTGCAG", "binding signal": "4720 fluorescence intensity (a.u.)"}
{"sequence": "ATGGGAAATTGGGGATTTTGACCGTGAATTTGGGGATTTTCGGAGTCACCTAGTGCAG", "binding signal": "5250 fluorescence intensity (a.u.)"}
{"sequence": "ACTGATTGCTGTTGGTCATTCCCGGGCCAGTCCCCACTCCCGGAGTCACCTAGTGCAG", "binding signal": "52400 fluorescence intensity (a.u.)"}
{"sequence": "TAGTAATTATTTATGCTGGCGTGCAGTTGTCTTCTTCTGTCGGAGTCACCTAGTGCAG", "binding signal": "19700 fluorescence intensity (a.u.)"}
{"sequence": "GGCACATAAATGCCTAATTAGAACGAGTGGACAGGTCAATCGGAGTCACCTAGTGCAG", "binding signal": "10500 fluorescence intensity (a.u.)"}
{"sequence": "AACTAGATATTTAATTAATGGTATCGTAATCAAACCGATCCGGAGTCACCTAGTGCAG", "binding signal": "6080 fluorescence intensity (a.u.)"}
{"sequence": "AATCAATTATAACCATTTTCTATTTAATTACCTCACGCACCGGAGTCACCTAGTGCAG", "binding signal": "25700 fluorescence intensity (a.u.)"}
{"sequence": "AATAAATAATTAATACTTAATTAATATGCAATAATATGCACGGAGTCACCTAGTGCAG", "binding signal": "38600 fluorescence intensity (a.u.)"}
{"sequence": "TATTTGCCTATCCCTATCAATTATCATGTTTAAATTTTCACGGAGTCACCTAGTGCAG", "binding signal": "5720 fluorescence intensity (a.u.)"}
{"sequence": "CGAAATTGGGCAGAACAGTAGATTTCTCTCGTAAATAAGTCGGAGTCACCTAGTGCAG", "binding signal": "6810 fluorescence intensity (a.u.)"}
